Data published in PubChem BioAssay AID360 (National Center for Advancing Translational Sciences (NCATS), 2006).
Screen size: about 48,000 compounds; about 550 (1.1%) were called active. Not shown: some 4% with an inconclusive outcome. Rule as the data show it: active = potency below about 15 µM; inconclusive = mostly about 16 µM to 33 µM; inactive = weaker than that. The list shows a part of the results.

target: Lysosomal acid glucosylceramidase (Homo sapiens) (UniProt P04062); assay: Glucocerebrosidase; details: purified enzyme, resorufin glucoside fluorescence (screen aimed at inhibitors), 20 min; series mostly up to 77 µM;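 also: the screen sought inhibitors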
Summary of the method: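 Normal human glucocerebrosidase (0.2 nM final) was assayed with resorufin β-D-glucopyranoside (30 uM final) in 50mM citric acid/KH2PO4, 10mM sodium taurocholate, 0.01% tween-20, pH 5.9. Compounds were titrated; fluorescence (Ex 548, Em 600) read after 20 min at RT.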
Potency is read from the fitted curve at half-maximal effect.

Sequence of UniProt P04062 (P04062 whole entry, looked up): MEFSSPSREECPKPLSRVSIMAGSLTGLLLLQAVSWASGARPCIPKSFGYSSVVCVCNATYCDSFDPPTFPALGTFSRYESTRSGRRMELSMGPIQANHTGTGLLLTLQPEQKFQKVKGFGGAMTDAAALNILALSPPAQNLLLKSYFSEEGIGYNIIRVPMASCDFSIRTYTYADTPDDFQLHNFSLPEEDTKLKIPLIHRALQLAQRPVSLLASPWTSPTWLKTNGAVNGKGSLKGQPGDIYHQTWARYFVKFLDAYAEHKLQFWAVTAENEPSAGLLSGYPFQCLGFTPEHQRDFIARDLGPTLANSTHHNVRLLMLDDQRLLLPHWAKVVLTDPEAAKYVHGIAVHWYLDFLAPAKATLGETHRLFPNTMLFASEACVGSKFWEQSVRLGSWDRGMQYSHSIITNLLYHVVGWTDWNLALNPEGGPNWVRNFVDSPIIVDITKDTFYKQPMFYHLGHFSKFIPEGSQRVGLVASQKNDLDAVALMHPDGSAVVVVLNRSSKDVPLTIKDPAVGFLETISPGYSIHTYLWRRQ

Compound | Potency
O=C(NCc1ccco1)C1CCN(S(=O)(=O)c2ccc(-n3cnnn3)cc2)CC1 | inactive: > 76.9 µM
COc1ccccc1C1=NOC(Cn2c(=O)c3c(ncn3C)n(C)c2=O)C1 (configuration not stated) | inactive: > 76.9 µM
CCN(c1c(C)n(C)n(-c2ccccc2)c1=O)S(C)(=O)=O | inactive: > 76.9 µM
C=CCN(CC=C)C(=O)CN1C(=O)c2ccccc2C1=O | inactive: > 76.9 µM
CCOc1ccc(NC(=O)N2CCN(CC)CC2)cc1 | active: 11.1 µM
CC(C)(C)OC(=O)N[C@@H](Cc1ccccc1)c1nnc(S(=O)(=O)Cc2cccc(F)c2)o1 | active: 14.8 µM
CCOC(=O)c1c(C)[nH]c(C(=O)O)c1C | inactive: > 76.9 µM
Cc1nc(CC(=O)N2CCN(c3cccc(C)c3C)CC2)cs1 | inactive: > 76.9 µM
Cc1ccc2nc3c(cc(C#N)c(=O)n3-c3nccs3)c(=O)n2c1 | inactive: > 76.9 µM
CCCN1CCN(C(=O)CN2C(=O)CC(C)(C)S(=O)(=O)c3ccccc32)CC1 | inactive
COc1ccc(Cl)cc1NC(=O)N1CCN(S(C)(=O)=O)CC1 | inactive: > 76.9 µM
COc1ccc2[nH]c(=O)c(CN(CCCN(C)C)C(=O)Nc3ccc(F)cc3)cc2c1 | inactive: > 76.9 µM
CCOc1ccccc1-n1c(SCC(=O)Nc2nccs2)nnc1-c1ccoc1C | inactive: > 76.9 µM
COCCn1c(Sc2ccccc2)nc2c1c(=O)[nH]c(=O)n2C | inactive: > 76.9 µM
Cn1c(=O)n(CCCOc2ccc(Br)cc2)c2ccccc21 | inactive: > 76.9 µM
COc1ccccc1OCc1ccc(C(=O)n2nc(C)c(Cl)c2C)o1 | inactive: > 76.9 µM
CCCCC(=O)Nc1nn(CCC)c2nc3ccccc3cc12 | inactive: > 76.9 µM
Fc1ccc2nc3[nH]c4ccccc4c3nc2c1 | inactive: > 76.9 µM
CC(C)(C)NC(=O)NC(=O)Cn1cc(C(F)(F)F)ccc1=O | inactive: > 76.9 µM
C/C(NCc1cccnc1)=C(\C#N)C(=O)NCc1ccccc1 | inactive: > 76.9 µM
O=S(=O)(c1cccc(-c2cn3cccnc3n2)c1)N1CCCCCC1 | inactive
Cc1onc(-c2ccccc2Cl)c1C(=O)OCC(=O)Nc1ccc2c(c1)OCO2 | inactive: > 76.9 µM
CC(C)Cn1c(SCC(=O)NC2CCCc3ccccc32)nc(O)cc1=O (configuration not stated) | inactive: > 76.9 µM

Compound | Potency
CCn1cc(C(=O)N2CCc3ccccc32)c(=O)c2cc(S(=O)(=O)N3CCOCC3)ccc21 | inactive: > 76.9 µM
O=C(CSc1nnc([C@@H]2CCCN2)o1)c1ccc(Cl)cc1 | inactive: > 76.9 µM
Cc1cc(NC(=O)CSc2nc(-c3ccc(F)cc3)cs2)no1 | inactive: > 76.9 µM
Cc1cc(C)n2nc(C(=O)Nc3ccc4c(c3)OCO4)nc2n1 | inactive: > 76.9 µM
COc1cc(CC(=O)OC2CCOC2=O)cc(OC)c1OC (configuration not stated) | inactive: > 76.9 µM
COCCNC(=O)C1CC(=O)N(CCc2ccccc2)C1 (configuration not stated) | inactive: > 76.9 µM
Cc1ccc(C)c(CN2CCCNC2=O)c1 | inactive: > 76.9 µM
COc1cc(C(=O)N2CCCC(c3nc(-c4cccs4)no3)C2)cc(OC)c1OC (configuration not stated) | inactive: > 76.9 µM
C/C=C/C=[N+](\[O-])C(C)/C(=N/O)c1ccc(F)cc1 (configuration not stated) | inactive: > 76.9 µM
COc1ccc(OC)c(NC(=O)CSc2nnc(CCCO)n2-c2ccccc2)c1 | inactive: > 76.9 µM
O=C1CCC(C(=O)NC2(C(=O)NC3CCCCC3)CCCCC2)N1 (configuration not stated) | inactive: > 76.9 µM
COc1ccc(OC)c(NC(=O)CSc2nnc(C)n2Cc2ccccc2)c1 | inactive: > 76.9 µM
CCC(=O)c1ccc(OCC(=O)O)cc1 | inactive: > 76.9 µM
CCOc1ccc(NS(=O)(=O)c2ccc3[nH]cc(C(=O)NCC4CCCO4)c(=O)c3c2)cc1 (configuration not stated) | inactive: > 76.9 µM
Cn1c(=O)c2c(ncn2Cc2ccc(Cl)c(Cl)c2)n(C)c1=O | inactive: > 76.9 µM
Cc1cc(C)c2c(n1)sc1c(N3CCOCC3)ncnc12 | inactive: > 76.9 µM
O=C(CN1C(=O)CCC1=O)Nc1nc(-c2ccc(Cl)s2)cs1 | inactive: > 76.9 µM
Cc1nnc(NCc2ccco2)c2ccccc12 | inactive: > 76.9 µM
CCc1ccc(CC)c(S(=O)(=O)Nc2ccc(C(=O)O)c(O)c2)c1 | inactive
COc1ccc2c(c1)CCc1c(C(=O)N3CCc4ccccc4C3)noc1-2 | inactive: > 76.9 µM
CCn1cc(C(=O)O)c(=O)c2cnc(N3CCN(C(=O)Nc4cccc5ccccc45)CC3)nc21 | inactive: > 76.9 µM
CCCNS(=O)(=O)c1ccc(C(=O)NCC2CCCO2)cc1 (configuration not stated) | inactive: > 76.9 µM
C=CCSc1nc2c(c(=O)[nH]c(=O)n2C)n1C/C=C(/C)Cl | inactive: > 76.9 µM

Compound | Potency
Cc1ccc(Cn2c(=S)[nH]c3ccc(N4CCOCC4)cc3c2=O)o1 | inactive: > 76.9 µM
COc1ccc(CC(=O)NCc2ccccc2Cl)cc1S(=O)(=O)N1CCOCC1 | inactive: > 76.9 µM
Cc1cccc(Cc2c(C)nc3nc(SCC(=O)NCc4ccco4)nn3c2C)c1 | inactive: > 76.9 µM
Cc1cc(NC(=O)CN2CCC(O)(c3cccc(F)c3)CC2)no1 | inactive: > 76.9 µM
O=S(=O)(c1ccc(OCc2nc3ccccc3s2)c(Cl)c1)N1CCOCC1 | inactive: > 76.9 µM
Nc1nonc1-n1nnc(C(=O)c2ccccc2)c1-c1ccccc1 | inactive
Cc1ccc2cc(CN(Cc3ccco3)S(=O)(=O)c3c(C)ccc4nsnc34)c(=O)[nH]c2c1 | inactive: > 76.9 µM
COC(=O)c1ccc(CC(=O)c2c(C)cc(O)cc2O)o1 | inactive: > 76.9 µM
O=C(c1cc(S(=O)(=O)N2CCOCC2)ccc1F)N1CCN(Cc2ccccc2)CC1 | inactive: > 76.9 µM
Cc1ccc(S(=O)(=O)N(C)CCCC(=O)Nc2ccccn2)cc1 | inactive: > 76.9 µM
O=C(NC1CCCC1)C(c1ccc(N2CCOCC2)cc1)N(Cc1ccco1)C(=O)c1ccco1 (configuration not stated) | inactive: > 76.9 µM
CCN(CC)CC(=O)c1c[nH]c2ccc(C)cc12 | inactive: > 76.9 µM
c1ccc(-c2cn3cccnc3n2)cc1 | inactive: > 76.9 µM
Cc1nnc2n1N=CC=C(C(C)(C)C)S2 | inactive: > 76.9 µM
CC1C2C(C)N(C)C(=O)N(C)C2N(C)C(=O)N1C (configuration not stated) | inactive: > 76.9 µM
Cc1n[nH]c(C)c1S(=O)(=O)N1CCCC(C(=O)NCc2cccs2)C1 (configuration not stated) | inactive: > 76.9 µM
O=C(O)CC(CC(=O)Nc1nncs1)c1ccccc1 (configuration not stated) | inactive: > 76.9 µM
COCCCn1c(=N)c(C(=O)NCC2CCCO2)cc2c(=O)n3ccccc3nc21 (configuration not stated) | inactive: > 76.9 µM
CC1(C)CC(=O)C(/C=N/n2cnc3ccccc3c2=O)=C(O)C1 | inactive: > 76.9 µM
Cc1occc1C(=O)n1nnc2ccccc21 | inactive: > 76.9 µM
O=C(NCc1ccco1)c1cc2c(s1)CSC2 | inactive: > 76.9 µM
CCC(=O)Nc1ccc(NC(=O)Cc2ccccc2)cn1 | inactive: > 76.9 µM
CSc1ccc(Cl)c(C(=O)OCC(=O)NCc2ccco2)c1 | inactive: > 76.9 µM

Compound | Potency
Cc1ccccc1C(=O)Nc1cccc(NC(=O)Cn2cnc3c(=O)n(C)c(=O)n(C)c32)c1 | inactive: > 76.9 µM
Cc1cccc2nc(CNc3ccc(F)cc3)cn12 | inactive: > 76.9 µM
CN1C(=S)SC(C)(C)C1(C)NO (configuration not stated) | inactive: > 76.9 µM
N#Cc1ccc(NC(=O)C2CC(c3ccc(F)cc3)=NO2)cc1 (configuration not stated) | inactive: > 76.9 µM
CC(=O)c1c(C)[nH]c(C(=O)NC2CCCCC2)c1C | inactive: > 76.9 µM
Cc1cc(N2CCCC2=O)cc(C)c1S(=O)(=O)NCCOc1ccccc1 | inactive: > 76.9 µM
CCOC(=O)Oc1ccc2oc(C)c(C(=O)OCCOC)c2c1 | inactive: > 76.9 µM
CCc1n[nH]c(=O)n1Cn1c(CC)n[nH]c1=O | inactive: > 76.9 µM
O=C(NC1CC2CCCC(C1)N2C(=O)NCc1ccccc1)C1CC1 (configuration not stated) | inactive: > 76.9 µM
CC1(C)N=C(C(=O)c2ccccc2)N(O)C1(C)O (configuration not stated) | inactive: > 76.9 µM
CCCCCN(C(=O)NC(=O)Nc1nncs1)S(C)(=O)=O | inactive: > 76.9 µM
O=C(CN1C(=O)C2C3C=CC(C3)C2C1=O)NCC1COc2ccccc2O1 (configuration not stated) | inactive: > 76.9 µM
COc1cccc(N2C(=O)c3ccncc3C2=O)c1 | inactive: > 76.9 µM
CCCC(=O)Nc1cc(-c2nn(C)c(=O)c3ccccc23)ccc1OC | inactive: > 76.9 µM
C#CCNc1nc(C)nc2c1nnn2Cc1ccccc1F | inactive: > 76.9 µM
c1coc(CN2CN=C(Nc3nc4ccccc4s3)NC2)c1 | inactive: > 76.9 µM
Cc1noc(C)c1C(=O)OC(C(=O)NC1CCCC1)c1ccc(F)cc1 (configuration not stated) | inactive: > 76.9 µM
C=CCOc1ccc(CN(C)CC(=O)N(CC(C)C)c2c(N)n(CC(C)C)c(=O)[nH]c2=O)cc1 | inactive: > 76.9 µM
Cn1c(CCN2CCOCC2)nc2cc(NC(=O)COc3ccccc3)ccc21 | inactive: > 76.9 µM
Cc1ccc(C(=O)COc2cccc(NC(=O)c3ccco3)c2)cc1 | inactive: > 76.9 µM
O=C(NCC1CCCO1)C1CCCN(S(=O)(=O)c2cccc3nsnc23)C1 (configuration not stated) | inactive: > 76.9 µM
COc1nc2c(C)cccc2cc1-c1noc(-c2ccncc2)n1 | inactive: > 76.9 µM
Cc1noc(C)c1COC(=O)c1ccccc1Sc1ccccc1C#N | inactive: > 76.9 µM
